Test results reported in paper PMC4336329 (PLoS ONE, 2015).
The whole screen tested about 310,000 compounds, of which about 14,000 (4.5%) showed an effect of 50% or more. The effect is printed as a negative number. This is one part of the list.

molecular target: human ether-à-go-go-related gene (hERG) potassium channel (human, UniProt Q12809); experiment: primary screen, population patch clamp on CHO cells stably expressing hERG
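Note: peak tail current of the secondary pulse compared with the same well before compound.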

human ether-à-go-go-related gene (hERG) potassium channel, sequence (Q12809 whole entry, looked up): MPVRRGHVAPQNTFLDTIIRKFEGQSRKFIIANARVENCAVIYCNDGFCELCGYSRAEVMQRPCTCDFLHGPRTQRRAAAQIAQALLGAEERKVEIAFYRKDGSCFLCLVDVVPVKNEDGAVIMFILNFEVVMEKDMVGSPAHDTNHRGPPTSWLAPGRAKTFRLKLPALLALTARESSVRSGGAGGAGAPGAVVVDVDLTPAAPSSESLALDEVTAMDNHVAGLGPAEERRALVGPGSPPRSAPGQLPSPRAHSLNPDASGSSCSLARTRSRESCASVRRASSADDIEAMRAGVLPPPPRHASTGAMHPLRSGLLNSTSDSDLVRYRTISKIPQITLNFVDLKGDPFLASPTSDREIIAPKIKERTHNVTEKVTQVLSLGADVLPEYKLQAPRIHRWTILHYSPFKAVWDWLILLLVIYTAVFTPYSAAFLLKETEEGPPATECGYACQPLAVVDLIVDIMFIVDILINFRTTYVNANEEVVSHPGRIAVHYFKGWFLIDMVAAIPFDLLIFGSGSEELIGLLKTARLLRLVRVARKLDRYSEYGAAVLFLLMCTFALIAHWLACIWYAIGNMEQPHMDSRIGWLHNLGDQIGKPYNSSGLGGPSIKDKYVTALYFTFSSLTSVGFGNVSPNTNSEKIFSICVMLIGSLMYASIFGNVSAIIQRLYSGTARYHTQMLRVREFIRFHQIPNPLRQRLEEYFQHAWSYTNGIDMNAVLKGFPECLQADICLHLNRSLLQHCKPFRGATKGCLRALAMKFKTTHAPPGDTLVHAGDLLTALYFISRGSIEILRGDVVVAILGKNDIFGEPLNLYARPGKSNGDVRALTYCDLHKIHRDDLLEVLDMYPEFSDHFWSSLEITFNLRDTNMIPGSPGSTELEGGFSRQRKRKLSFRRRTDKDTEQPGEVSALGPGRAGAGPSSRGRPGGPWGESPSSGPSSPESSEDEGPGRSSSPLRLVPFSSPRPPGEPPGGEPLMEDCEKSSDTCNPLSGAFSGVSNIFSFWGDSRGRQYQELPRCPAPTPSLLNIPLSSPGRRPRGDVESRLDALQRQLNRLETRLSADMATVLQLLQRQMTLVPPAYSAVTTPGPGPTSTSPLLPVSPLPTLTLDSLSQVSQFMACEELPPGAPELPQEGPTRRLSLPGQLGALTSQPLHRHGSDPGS

| Structure (SMILES) | hERG current change (%, negative = inhibition) at 10uM |
| --- | --- |
| C/C(=N\NC(N)=S)C1=CCC2C3CC[C@H]4CC(O)CC[C@]4(C)C3CC[C@]12C (stereo partly drawn) | 13.6% |
| CCOCCCNC(=O)c1ccccc1SCC | 6.98% |
| Cc1cc(C)nc(NCc2ccc(Cl)cc2)n1.Cl | 8.68% |
| Cc1ccc(NC(NC(=O)c2cccnc2)C(Cl)(Cl)Cl)cc1 (stereo not drawn) | -8.26% |
| O=C1CC(=O)N(c2cccc(F)c2)C(=O)N1 | 16.1% |
| CNc1nc2c(N)ncnc2n1[C@H]1O[C@@H](CO)[C@H](O)[C@@H]1O | 24.3% |
| CC(C)CN=CC1=C(O)c2ccccc2C1=O | -71.4% |
| CN1CCc2c(c3ccccc3n2Cc2ccccc2)C1.Cl | -71.2% |
| COc1cnc(SC(C)C)[nH]c1=O | 19.8% |
| CCn1c(=O)c([N+](=O)[O-])c(NCCc2ccc(OC)c(OC)c2)c2ccccc21 | -10.5% |
| CCCSc1nn2c(=O)c3ccccc3nc2s1 | -22.3% |
| CC(=O)N1N=C(c2ccc(Cl)cc2)OC12CCCC2 | -7.66% |
| CCN(CC)C(=O)C(C)N(C#N)c1nc(SC)nc(N(C)C)n1 (stereo not drawn) | -31.7% |
| Cc1cccc(CN2CCC(Oc3ccc(C(=O)N4CCCCC4)cc3)CC2)c1 | -21.9% |
| O=C(CSc1nnc(NC(=O)C2CC2)s1)Nc1ccc(F)cc1 | 12.5% |
| COC(=O)CCc1sc(Nc2ccccc2)nc1-c1ccc(OC)cc1 | 10.7% |
| CSc1nc2ccccc2cc1/C=C(\C#N)c1ccc(Cl)c(Cl)c1 | 12.7% |
| O=C(c1ccco1)N1CCN(S(=O)(=O)c2cccc(Cl)c2)CC1 | -16% |
| COC(=O)c1ccc(-c2ccco2)n1Cc1cccc(C)c1 | 7.3% |

| Structure (SMILES) | hERG current change (%, negative = inhibition) at 10uM |
| --- | --- |
| Cc1ccc(-c2noc(CCCC(=O)NC3CCCCC3)n2)cc1 | 3.58% |
| COc1cccc(-c2csc3nnc(SCC(=O)NCc4cccs4)n23)c1 | -1.65% |
| COc1ccc(CCNC(=O)C2CCCN(S(=O)(=O)c3ccc(OC)cc3)C2)cc1 (stereo not drawn) | -25.9% |
| CCOC(=O)N1CCC(N(CCN(C)C)C(=S)Nc2cc(Cl)ccc2C)CC1 | -6.45% |
| Oc1ccccc1-c1nnc2n1CCCCC2 | 12.5% |
| COc1ccc(NC(=O)C2(S(=O)(=O)c3ccc(C)cc3)CC2)cc1 | -2.65% |
| CC(=O)Nc1ccc(NC(=O)CCN2C(=O)C3CC=CCC3C2=O)cc1 (stereo not drawn) | 3.53% |
| CC(C)[C@H](N)C(=O)OCCOCn1cnc2c(=O)[nH]c(N)nc21.Cl | -0.835% |
| COc1ccc(-n2ncc3c2CC(C)(C)CC3NC(=O)c2cnc(C)cn2)cc1 (stereo not drawn) | -4.41% |
| CN(Cc1ccccc1)S(=O)(=O)c1ccc(N2CCCC2=O)cc1 | -12.7% |
| CCOc1cc(/C=C2\N=C(SC)SC2=O)cc([N+](=O)[O-])c1OC(C)=O | 1.02% |
| Cc1cc(NC(=O)CSc2nc3c(cc2C#N)CCCCC3)no1 | 33.6% |
| O=[N+]([O-])c1ccc(N/N=C\c2cccn2-c2ccccc2)nc1 | 4.86% |
| CC[C@@]12C(=O)N(c3ccccc3)C(=O)N1[C@H](c1ccc(OC)cc1)[C@@H]1C(=O)N(C(C)(C)C)C(=O)[C@@H]12 | 24.2% |
| O=C(OCN1C(=O)c2ccccc2C1=O)/C(=C\c1ccco1)NC(=O)c1ccccc1 | -16.5% |
| Cc1c(Cl)c(C(F)(F)F)nn1CC(=O)NN | 2.79% |
| CN1CCN(c2ccccc2NC(=O)c2ccc3c(c2)OCCO3)CC1 | -3.67% |
| CC(C(=O)O)c1n[nH]c(=O)c2ccccc12 (stereo not drawn) | 2.79% |
| O=c1oc2ccccc2c(O)c1/C=N/c1ncccn1 | 0.537% |

| Structure (SMILES) | hERG current change (%, negative = inhibition) at 10uM |
| --- | --- |
| Cc1ccc(S(=O)(=O)CCC(=O)OCC(=O)N(C)C2CCS(=O)(=O)C2)cc1 (stereo not drawn) | 16.7% |
| Cc1ccc(OCc2nc(-c3ccc(Cl)cc3)n[nH]2)cc1.Cl | -14.3% |
| O=c1[nH]c2ccccc2nc1C(F)(F)C(F)F | 0.228% |
| CCN(CC)CCNC(=O)C(=O)NCC1OCCN1S(=O)(=O)c1ccc([N+](=O)[O-])cc1 (stereo not drawn) | -9.32% |
| Cl.NCCc1c[nH]c2ccc(O)cc12 | 6.86% |
| Cc1ccc(NC(=O)CCn2c(=O)[nH]c3ccsc3c2=O)cc1C | 16.6% |
| Cc1ccc(N2CCN(CC(O)COc3ccc([N+](=O)[O-])cc3)CC2)cc1 (stereo not drawn) | -76.4% |
| CCN(c1ccccc1)S(=O)(=O)c1ccc(Cl)c(C(=O)N(CC2CCCO2)C2CCS(=O)(=O)C2)c1 (stereo not drawn) | -5.04% |
| NC(=O)CS(=O)(=O)c1nc2ccccc2n1Cc1ccccc1F | 11.6% |
| CN1C(=O)[C@H]2[C@@H](C3CC3)N3C(=O)CN(Cc4ccccn4)C(=O)[C@@]3(Cc3ccccc3)[C@H]2C1=O | -0.814% |
| NC(=O)CC(NC(=O)c1cccc(Br)c1)c1ccc(NC2CCCCCCC2)c([N+](=O)[O-])c1 (stereo not drawn) | 6.95% |
| O=C(c1ccc(F)cc1)N1CCC(C(=O)N2CCN(S(=O)(=O)c3cccc(F)c3)CC2)CC1 | -11.6% |
| CCCCn1c(N)c(N(CCOC)C(=O)c2oc3ccc(OC)cc3c2C)c(=O)[nH]c1=O | 9.82% |
| COc1cc(C(=O)COC(=O)c2cnc(C)cn2)ccc1OC(F)F | 17% |
| Cc1ccc(NC(=O)CN(C)Cc2cccs2)cc1Cl | -5.93% |
| Cc1nn(Cc2ccccc2Cl)c(C)c1C(=O)Nc1nnc(C2CC2)s1 | -12% |
| CC(=O)N=c1cccc(NC(C)=O)n1O | 1.57% |
| O=C(O)CC(=O)NC12CC3CC(CC(C3)C1)C2 | 6.41% |
| CC1(C)CC(=O)c2sc(NC(=O)c3cccs3)nc2C1 | 1.36% |
